The whole screen tested about 110,000 compounds, of which about 230 (0.21%) showed an effect of 50% or more. The list shows a part of the results.
Target: DPAP1 (Plasmodium falciparum, UniProt Q8IIJ9)
Experiment: primary screen, percent inhibition; read by cleavage of a fluorogenic dipeptide substrate; higher = more effect of the substance
Parameters: species or system P. falciparum D10 trophozoite lysates; single well
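Further: 30 min substrate incubation versus DMSO and 10 µM JCP410 controls.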

Chain of DPAP1 (Q8IIJ9 whole entry, looked up): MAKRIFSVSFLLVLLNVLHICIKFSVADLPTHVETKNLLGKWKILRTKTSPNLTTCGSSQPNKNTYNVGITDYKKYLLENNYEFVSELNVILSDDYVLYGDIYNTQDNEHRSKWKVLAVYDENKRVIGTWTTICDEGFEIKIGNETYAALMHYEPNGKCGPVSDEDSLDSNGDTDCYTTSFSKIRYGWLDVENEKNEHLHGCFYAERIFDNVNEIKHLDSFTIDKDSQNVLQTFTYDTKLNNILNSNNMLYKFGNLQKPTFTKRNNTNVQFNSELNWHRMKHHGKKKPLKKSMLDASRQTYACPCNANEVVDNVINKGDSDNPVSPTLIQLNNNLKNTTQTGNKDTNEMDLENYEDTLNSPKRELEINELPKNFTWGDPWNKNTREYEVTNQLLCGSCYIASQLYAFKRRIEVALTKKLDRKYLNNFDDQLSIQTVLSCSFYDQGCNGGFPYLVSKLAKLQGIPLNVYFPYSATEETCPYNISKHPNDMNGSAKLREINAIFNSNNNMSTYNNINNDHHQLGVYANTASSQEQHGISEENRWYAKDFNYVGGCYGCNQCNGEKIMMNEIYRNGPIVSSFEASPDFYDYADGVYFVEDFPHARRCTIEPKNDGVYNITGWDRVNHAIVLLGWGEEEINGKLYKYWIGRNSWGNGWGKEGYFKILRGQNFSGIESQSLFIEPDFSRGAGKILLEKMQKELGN

SMILES	% Inhibition @ 10 uM
Cc1ccc(S(=O)(=O)c2nnn3c2nc(N2CCOCC2)c2sccc23)cc1	2.72%
N#Cc1ccc(-c2ccc(F)cc2)nc1SCC(=O)NC1CC1	-7.4%
COc1cc(C(=O)N2CCN(c3ccc(C)c(Cl)c3)CC2)cc(OC)c1OC	-4.52%
O=C(CS(=O)(=O)c1ccccc1)N1CCCCCC1	5.42%
Cn1c(=O)c(C(=O)NC(C)(C)C)c(O)c2ccccc21	7.16%
CCc1nnc(NC(=O)c2ccc(OC)c(S(=O)(=O)N3CC(c4ccccc4)CC3=O)c2)s1 (stereo not shown)	5.76%
CCn1c(NCc2ccccc2F)nc2ccccc21	-9.25%
CCCCN1C(=O)c2ccc(F)cc2C1=O	-0.712%
Cc1ccsc1CNC1C2CC3CC(C2)CC1C3 (stereo not shown)	-0.759%
Cn1c(NCc2ccco2)nc2ccccc21	-0.872%
O=C(N/C(=C\c1ccco1)C(=O)N1CCCC1CO)c1ccccc1 (stereo not shown)	-2.8%
Cc1c(C(=O)Nc2nccs2)oc2ccccc12	-4.87%
COCCN1C(=O)c2ccccc2C(C(=O)NCc2ccccc2OC)C1c1ccc(F)cc1 (stereo not shown)	2.84%
O=C1C2C3CCC(C3)C2C(=O)N1CNc1cccc(Cl)c1 (stereo not shown)	-3.49%
CCCN(CCC)CC/N=c1/c(-c2ccccc2)c(O)c1=O	4.36%
COc1cc(C2C(C(=O)Nc3ccccn3)=C(C)Nc3nnnn32)ccc1OCc1ccccc1 (stereo not shown)	-2.13%
CCOC(=O)N1CCC(N2CCSCC2)CC1	-3.6%
COc1ccc(N(CN2C(=O)c3cc(Cl)c(Cl)cc3C2=O)C(C)=O)cc1	-2.98%
COc1cccc(NC=C2C(=O)N(C)C(=O)N(C)C2=O)c1	-6.69%
CCCSc1nc(=O)c2c(n1C)NC(=O)CC2c1ccc(O)cc1OC (stereo not shown)	-4.71%
Cc1ccc2c(c1)C1CN(C)CCC1N2C(=O)Nc1ccccc1 (stereo not shown)	0.708%
O=C(NCc1ccc(F)cc1)c1cc2ccc3cccnc3c2[nH]1	-2.72%
COc1cc(C(=O)NCCC(=O)NCCCN2CCCCC2)cc(OC)c1OC	4.36%

SMILES	% Inhibition @ 10 uM
O=C1NC(=O)/C(=C/c2cc3c(cc2Br)OCO3)N1	-3.75%
NC(=O)CSc1nc(SCC(N)=O)c2c3c(sc2n1)CCCC3	-3.05%
Cc1nnc2c(NCC(C)c3ccccc3)nc3ccc(C(=O)c4ccccc4)cc3n12 (stereo not shown)	-6.29%
Cc1nnc(C)n1/N=C\c1cccnc1	4.67%
Cn1c(=O)c2c(ncn2CCOC2c3ccccc3CCc3ccccc32)n(C)c1=O	1.89%
Cc1ccccc1CSc1nc2cccnc2[nH]1	6.08%
CN(CCC#N)C(=O)Cn1nc(Cc2ccncc2)c2ccccc2c1=O	6.55%
CC1=C(C(=O)OC(C)C)C(c2cccc(Cl)c2Cl)CC(=O)N1 (stereo not shown)	1.76%
CC(C)CNCc1noc2c1CSc1ccccc1-2	0.231%
COc1ccc(-n2c(C)cc(C)nc2=O)cc1	-1.63%
CCC1CCCCN1CCCNC(=O)c1cc2c(-c3ccccc3F)nn(C)c2s1 (stereo not shown)	2%
O=[N+]([O-])c1ccc(N2CCN(C3C4CC5CC(C4)CC3C5)CC2)cc1 (stereo not shown)	-4.75%
O=C(CSCc1ccc(C(=O)O)cc1)Nc1ccc2ccccc2c1	0.983%
O=C(COc1ccc(Cl)cc1)NCc1nnc(SCC(=O)NC2CCCC2)o1	-7.46%
O=C(c1nnc(Cc2ccc(F)cc2Cl)o1)N1CCN(c2ccccn2)CC1	-1.14%
COc1ccc(-c2cc(C(F)(F)F)n3nc(C(=O)NC4CCCCC4)cc3n2)cc1	-5.03%
CCCCNC(=O)CCSc1ccc(C)cc1	-2.98%
COc1ccc(OC)c(CNCc2c(C(=O)O)[nH]c3cc(OC)ccc23)c1	-1.53%
Cc1oc(-c2ccc(Cl)cc2)nc1CS(=O)CC(=O)NCCc1ccc(Cl)cc1 (stereo not shown)	2.37%
Cc1nc2ccc(S(=O)(=O)NC(CC(C)C)C(=O)N3CCN(C4CCCCC4)CC3)cc2s1 (stereo not shown)	2.12%
CCOc1ccc(C(=O)Nc2ccc(N3CCOCC3)cc2)cc1	-0.251%
CC1NC(=O)NC1CCCCC(=O)O (stereo not shown)	2.33%
CCC(=O)Nc1ccc2c(c1)c1ccccc1n2CC	0.632%

SMILES	% Inhibition @ 10 uM
NC(=O)c1c(NC(=O)c2ccc(S(=O)(=O)N3CCCCC3)cc2)sc2c1CCCC2	-1.88%
Cc1ccccc1Cn1c2ccccc2c2cnn(CC(=O)N3CCOCC3)c(=O)c21	4.95%
CCC(=O)NS(=O)(=O)c1cccnc1Nc1cccc(Cl)c1Cl	-5.6%
Cc1cc(-c2ccccc2)n2nc(C)c(-c3ccc(Cl)cc3)c2n1	0.0538%
O=S(=O)(NC1CCCCCC1)c1ccc(F)cc1	-8.75%
NC(=O)c1sc2nccc(Nc3ccccc3)c2c1N	-4.23%
CCOc1cccc(N2C(=O)CC(N3CCN(C45CC6CC(CC(C6)C4)C5)CC3)C2=O)c1 (stereo not shown)	-3.41%
COc1ccccc1-n1cnc2cc(NS(=O)(=O)c3ccc(C)cc3)ccc21	-6.25%
CCC(C)NC(=O)c1csc2c1CCCC2 (stereo not shown)	-1.44%
Cc1cc(C)cc(NC(=O)CN(Cc2ccccc2)S(=O)(=O)c2ccc(F)cc2)c1	3.53%
CC(C)c1ccc(CN(CCCN(C)C)CCCN(C)C)cc1	2.7%
COc1ccc(Br)cc1C1CC(=O)NC2=C1C(=O)CC(C)(C)C2 (stereo not shown)	-5.2%
COCCCNC(=O)c1c(O)nc2c(c1O)CCCC2	-0.458%
Cc1nnc(N2CCC(C(=O)NC3CCC(C)CC3)CC2)c2nn(-c3ccccc3)c(C)c12 (stereo not shown)	1.11%
CC1CC(Nc2ccccc2)c2ccccc2N1 (stereo not shown)	-3.79%
O=C(c1ccccc1)c1cccn1CC(=O)N1CCOCC1	-0.522%
Oc1nc(SCc2ccccc2)nc2c1cnn2-c1ccccc1	-3.35%
OCC1CCCN(CC2CC=CCC2)C1 (stereo not shown)	-2.95%
CCCCNC(=O)CSc1nc2nc(C)c(Cc3ccccc3Cl)c(C)n2n1	15.1%
CCc1nc2c(sc3nc(C)cc(C)c32)c(=O)o1	-1.11%
CCN(CC)c1ccc(C2C(C#N)=C(C)N=C3CC(c4ccccc4)CC(O)=C32)cc1 (stereo not shown)	1.01%

— publication PMC6919601, “Identification of Plasmodium dipeptidyl aminopeptidase allosteric inhibitors by high throughput screening” (PLoS ONE, 2019)
